Test results: the antibiotic and cytotoxicity screens of Wong et al. (2023)
Some of the results follow.

Experiments:
HSkMC = human skeletal muscle cells; assay: cytotoxicity call (relative viability < 0.9); conditions: 10 µM
HepG2 = assay: cytotoxicity call (relative viability < 0.9); conditions: 10 µM
S. aureus RN4220 = assay: growth inhibition call (relative growth <= 0.2); conditions: 50 µM

SMILES	cytotoxicity call (HSkMC)	cytotoxicity call (HepG2)	growth inhibition call (S. aureus RN4220)
CO[C@@H]1CN(C)C(=O)c2ccc(NC(=O)CC(F)(F)F)cc2OC[C@@H](C)N(C(=O)C2CCOCC2)C[C@@H]1C	inactive	inactive	inactive
C[C@H]1CCCCO[C@H](CN(C)C(=O)Nc2ccc3c(c2)OCO3)[C@@H](C)CN([C@@H](C)CO)C(=O)c2cc(NS(=O)(=O)c3cccs3)ccc2O1	inactive	inactive	inactive
CCCC(=O)NCc1nccc(N(C)C)n1	inactive	inactive	inactive
C[C@H]1CCCCO[C@H](CN(C)S(=O)(=O)c2cccs2)[C@@H](C)CN([C@@H](C)CO)C(=O)c2cc(NC(=O)c3ccccc3)ccc2O1	inactive	inactive	inactive
CCS(=O)(=O)Nc1ccc2c(c1)C(=O)N(C)C[C@H](OC)[C@H](C)CN(C(=O)c1ccc3c(c1)OCO3)[C@@H](C)CO2	inactive	inactive	inactive
C[C@H]1CN([C@@H](C)CO)C(=O)c2cc(NC(=O)Cn3cnnn3)ccc2O[C@H]1CN(C)C(=O)Nc1ccccc1	inactive	active	inactive
CN(C)CC#Cc1ccc([C@@H]2[C@H]3CN(C(=O)CN(C)C)CCCCN3[C@H]2CO)cc1	inactive	inactive	inactive
C[C@H]1CN([C@@H](C)CO)C(=O)CCCn2cc(nn2)CO[C@H]1CN(C)Cc1ccc(C(=O)Nc2ccccc2N)cc1	inactive	inactive	inactive
COc1cccc(C(=O)Nc2ccc3c(c2)C(=O)N(C)[C@@H]2CC[C@@H](CC(=O)NCC(F)(F)F)O[C@@H]2CO3)c1	inactive	inactive	inactive
CO/N=C(\C(=O)N[C@@H]1C(=O)N2C(C(=O)O)=C(C[n+]3ccn4ncccc43)CS[C@H]12)c1nsc(N)n1	inactive	inactive	inactive
Cc1noc(C)c1NC(=O)N(C)C[C@@H]1OCCCC[C@@H](C)Oc2ccc(NC(=O)CCC(F)(F)F)cc2C(=O)N([C@H](C)CO)C[C@@H]1C	inactive	inactive	inactive
C[C@H](CO)N1C[C@H](C)[C@H](CN(C)CC2CC2)OCCCC[C@H](C)Oc2ccc(NS(=O)(=O)c3ccc(Cl)cc3)cc2C1=O	inactive	inactive	inactive
COc1ccc(S(=O)(=O)Nc2ccc3c(c2)C(=O)N([C@@H](C)CO)C[C@@H](C)[C@H](CN(C)Cc2ccc(Oc4ccccc4)cc2)O3)cc1	inactive	active	inactive
C[C@H]1CCCCO[C@@H](CN(C)S(=O)(=O)c2cn(C)cn2)[C@@H](C)CN([C@@H](C)CO)C(=O)c2cc(NS(=O)(=O)c3cn(C)cn3)ccc2O1	inactive	inactive	inactive
C[C@@H]1CN([C@H](C)CO)C(=O)c2cc(NC(=O)NC3CCCCC3)ccc2O[C@@H](C)CCCCO[C@H]1CN(C)Cc1ccc(C(F)(F)F)cc1	inactive	inactive	inactive
CCOC(=O)[C@H]1[C@@H]2[C@@H](Cc3ccccc3N)[C@@H](C(=O)OCC)N(c3ccc(OC)cc3)C(=O)[C@@]23C=C[C@@H]1O3	inactive	inactive	inactive
Cc1sc2[nH]cnc(=S)c2c1C	inactive	inactive	inactive
C[C@@H]1CN([C@H](C)CO)C(=O)c2cc(NC(=O)Nc3cccc4ccccc34)ccc2O[C@@H](C)CCCCO[C@H]1CN(C)C(=O)c1ccccc1	inactive	inactive	inactive
C[C@@H]1CN([C@@H](C)CO)C(=O)c2cccc(NC(=O)C3CC3)c2O[C@@H]1CN(C)C(=O)NC1CCCCC1	inactive	inactive	inactive
COC(=O)c1ccc(C(=O)OC)c(N)c1	inactive	inactive	inactive
C[C@@H]1CN([C@@H](C)CO)C(=O)c2cc(NS(=O)(=O)c3cn(C)cn3)ccc2O[C@@H](C)CCCCO[C@@H]1CN(C)Cc1ccc(C(F)(F)F)cc1	inactive	inactive	inactive
C[C@H]1CN([C@@H](C)CO)C(=O)c2cccc(NC(=O)NC3CCCCC3)c2O[C@H]1CN(C)Cc1ccc(C(F)(F)F)cc1	inactive	inactive	inactive
C[C@H](CO)N1C[C@H](C)[C@H](CN(C)Cc2cccc3c2OCCCO3)OCc2ccccc2-c2ccccc2C1=O	inactive	inactive	inactive
C[C@@H]1CN([C@H](C)CO)C(=O)c2cccc(NC(=O)C3CCCCC3)c2O[C@H]1CN(C)Cc1ccc(Oc2ccccc2)cc1	inactive	inactive	inactive
C[C@H](CO)N1C[C@H](C)[C@@H](CN(C)S(=O)(=O)c2cccc(F)c2)Oc2cc(C#CCN(C)C)ccc2S1(=O)=O	inactive	inactive	inactive
O=C(C[C@@H]1CC[C@H]2[C@@H](COC[C@@H](O)CN2S(=O)(=O)c2ccc(Cl)cc2)O1)N[C@@H]1CCN(Cc2ccccc2)C1	inactive	inactive	inactive
C[C@H](CO)N1C[C@H](C)[C@H](CN(C)C(=O)Nc2cccc3ccccc23)Oc2ccc(NC(=O)Nc3cccc4ccccc34)cc2C1=O	inactive	active	inactive

SMILES	cytotoxicity call (HSkMC)	cytotoxicity call (HepG2)	growth inhibition call (S. aureus RN4220)
C[C@@H]1CCCCO[C@@H](CN(C)Cc2ccccc2)[C@H](C)CN([C@@H](C)CO)C(=O)c2cc(NS(=O)(=O)c3ccccc3)ccc2O1	inactive	inactive	inactive
COc1ccc(S(=O)(=O)Nc2cccc3c2O[C@@H](CN(C)C(=O)Nc2cccc4ccccc24)[C@H](C)CN([C@H](C)CO)C3=O)cc1	inactive	inactive	inactive
CC(C)(C)OC(=O)C[C@H]1C/C=C/CC[C@H](Cc2ccc(F)cc2)C(=O)O[C@H](c2ccccc2)CNC1=O	inactive	inactive	inactive
Cc1ccc2c(=O)c3ccccc3n(CCCN)c2c1C	inactive	active	inactive
Cc1noc(C)c1NC(=O)N(C)C[C@H]1OCCCC[C@H](C)Oc2ccc(NC(=O)CCC(F)(F)F)cc2C(=O)N([C@H](C)CO)C[C@@H]1C	inactive	inactive	inactive
C[C@@H]1CN([C@@H](C)CO)C(=O)c2cc(NC(=O)CCCN(C)C)ccc2O[C@@H]1CN(C)S(=O)(=O)c1cccs1	inactive	inactive	inactive
C[C@H](CO)N1C[C@H](C)[C@H](CN(C)Cc2ccc(C(F)(F)F)cc2)OCCCC[C@H](C)Oc2ccc(NC(=O)c3ccccc3)cc2C1=O	inactive	inactive	inactive
Cc1ccc(S(=O)(=O)N(C)C[C@@H]2Oc3ccc(NC(=O)CCN4CCOCC4)cc3CC(=O)N([C@@H](C)CO)C[C@H]2C)cc1	inactive	inactive	inactive
C[C@@H]1CCCCO[C@H](CN(C)Cc2ccncc2)[C@H](C)CN([C@@H](C)CO)C(=O)c2cc(NS(=O)(=O)c3ccc(Cl)cc3)ccc2O1	inactive	inactive	inactive
Cc1noc(C)c1NC(=O)N(C)C[C@H]1Oc2ccc(NS(=O)(=O)c3cccs3)cc2CC(=O)N([C@H](C)CO)C[C@H]1C	inactive	inactive	inactive
COc1ccc(S(=O)(=O)N(C)C[C@H]2Oc3c(NS(=O)(=O)c4c(C)noc4C)cccc3C(=O)N([C@@H](C)CO)C[C@H]2C)cc1	inactive	inactive	inactive
C[C@H]1CN([C@@H](C)CO)C(=O)c2cc(NC(=O)Cn3cnnn3)ccc2O[C@H]1CN(C)S(=O)(=O)c1ccc(F)cc1	inactive	inactive	inactive
Cc1ccc(S(=O)(=O)N(C)C[C@H]2Oc3ccc(NS(=O)(=O)c4c(C)noc4C)cc3CC(=O)N([C@H](C)CO)C[C@H]2C)cc1	inactive	inactive	inactive
COc1ccc(CN(C)C[C@H]2OCCCC[C@H](C)Oc3ccc(NC(=O)C4CCCCC4)cc3C(=O)N([C@H](C)CO)C[C@@H]2C)cc1	inactive	inactive	inactive
CS(=O)(=O)N1CCC2(CC1)OCCO2	inactive	inactive	inactive
CN1C[C@H](O)COC[C@H]2O[C@H](CC(=O)N3CCN(c4ccccc4)CC3)CC[C@@H]21	inactive	inactive	inactive
C[C@@H]1CCCCO[C@H](CN(C)Cc2ccncc2)[C@H](C)CN([C@H](C)CO)C(=O)c2cc(NC(=O)Cc3ccccc3)ccc2O1	inactive	inactive	inactive
COc1ccc(S(=O)(=O)Nc2ccc3c(c2)C(=O)N([C@H](C)CO)C[C@@H](C)[C@H](CN(C)Cc2ccc4c(c2)OCO4)OCCCC[C@H](C)O3)cc1	inactive	inactive	inactive
C[C@H]1CN([C@@H](C)CO)C(=O)c2cccc(NS(=O)(=O)c3cn(C)cn3)c2O[C@@H]1CN(C)S(=O)(=O)c1ccc(Cl)cc1	inactive	inactive	inactive
Cn1cc(N2C[C@]3(COCCN(C(=O)C4CC4)C3)OCC2=O)cn1	inactive	inactive	inactive
C[C@H](CO)N1C[C@H](C)[C@H](CN(C)C(=O)Nc2ccc3c(c2)OCO3)Oc2ccc(NC(=O)C3CC3)cc2C1=O	inactive	inactive	inactive
CCCCCCCCCCCCCCCCCCCCCCO	inactive	active	inactive
COc1cccc(S(=O)(=O)N(C)C[C@H]2Oc3ncc(-c4cccc(C(=O)N(C)C)c4)cc3C(=O)N([C@@H](C)CO)C[C@H]2C)c1	inactive	inactive	inactive
C[C@@H]1CN([C@@H](C)CO)C(=O)Cc2cc(NS(=O)(=O)c3cccs3)ccc2O[C@H]1CN(C)C(=O)Nc1cccc2ccccc12	inactive	inactive	inactive
O=C(C[C@H]1CC[C@H]2[C@@H](COC[C@H](O)CN2C(=O)c2cnccn2)O1)NCc1ccc(Oc2ccccc2)cc1	inactive	inactive	inactive
C[C@@H]1CN([C@H](C)CO)C(=O)Cc2cc(NS(=O)(=O)c3cn(C)cn3)ccc2O[C@@H]1CN(C)S(=O)(=O)c1cccs1	inactive	inactive	inactive
C[C@@H]1CN([C@@H](C)CO)C(=O)c2cc(NC(=O)Nc3ccc(F)cc3)ccc2O[C@@H](C)CCCCO[C@H]1CN(C)CC1CC1	inactive	inactive	inactive
